Source: patent US11965038B2, “Pharmaceutical composition comprising antibody binding specifically to lysyl-tRNA synthetase N-terminus as effective ingredient for preventing or treating immune cell migration-related disease” (Zymedi Co., Ltd., priority 2017, dated 2024)
Numbering of substitutions follows the chain as printed.

B1: N3-8-3: N3-8 derivative antibody; HC SEQ ID NO: 103, LC SEQ ID NO: 115 (antibody)
heavy: EVQLLESGGGLVQPGGSLRLSCAASGFTFSSYDMSWVRQAPGKGLEWVSAISPYSGRIYYADSVKGRFTISRDNSKNTLYLQMNSLRAEDTAVYYCARMALDFDYWGQGTLVTVSS[human IgG1 constant region not shown]
light: QSVLTQPPSASGTPGQRVTISCTGSSSNIGSNYVTWYQQLPGTAPKLLIYRNNQRPSGVPDRFSGSKSGTSASLAISGLQSEDEADYYCSSFSDELGAYVFGGGTKLTVLGQPKAAPSVTLFPPSSEELQANKATLVCLISDFYPGAVTVAWKADSSPVKAGVETTTPSKQSNNKYAASSYLSLTPEQWKSHRSYSCQVTHEGSTVEKTVAPTECS
modifications: IgG heavy chain 6; IgG light chain 5
B2: N3-8-4: N3-8 derivative antibody; HC SEQ ID NO: 105, LC SEQ ID NO: 111 (antibody)
heavy: B1 heavy with M99L
light: B1 light with R51D, N53S, Q54N
modifications: IgG heavy chain 7; IgG light chain 3
B3: N3-8-5: N3-8 derivative antibody; HC SEQ ID NO: 105, LC SEQ ID NO: 113 (antibody)
heavy: B1 heavy with M99L
light: B1 light with R51S
modifications: IgG heavy chain 7; IgG light chain 4
B4: N3-8-6: N3-8 derivative antibody; HC SEQ ID NO: 105, LC SEQ ID NO: 115 (antibody)
heavy: B1 heavy with M99L
light: B1 light
modifications: IgG heavy chain 7; IgG light chain 5
B5: N3-8-1: N3-8 derivative antibody; HC SEQ ID NO: 103, LC SEQ ID NO: 111 (antibody)
heavy: B1 heavy
light: B1 light with R51D, N53S, Q54N
modifications: IgG heavy chain 6; IgG light chain 3
B6: N3-8-2: N3-8 derivative antibody; HC SEQ ID NO: 103, LC SEQ ID NO: 113 (antibody)
heavy: B1 heavy
light: B1 light with R51S
modifications: IgG heavy chain 6; IgG light chain 4
B7: N3-1: improved N3 antibody; HC SEQ ID NO: 89, LC SEQ ID NO: 107 (protein)
chain 1: B1 heavy with P53Y, Y54D, S55N, R57N, I58T, C96S
chain 2: QSVLTQPPSASGTPGQRVTISCTGSSSNIGSNYVTWYQQLPGTAPKLLIYDNSNRPSGVPDRFSGSKSGTSASLAISGLQSEDEADYYCASFSDELGAYVFGGGTKLTVLRTVAAPSVFIFPPSDEQLKSGTASVVCLLNNFYPREAKVQWKVDNALQSGNSQESVTEQDSKDSTYSLSSTLTLSKADYEKHKVYACEVTHQGLSSPVTKSFNRGEC

Tested on: not listed separately
Assay: Thermal stability, Protein thermal shift Dye kit
Type: physicochemical
Conditions: antibody 1 mg/ml, 100 μl
Experimental: In addition, the thermal stability of the antibody was measured using 100 μl of the purified antibodies at a concentration of 1 mg/ml. Protein thermal shift Dye kit (Thermofisher) was performed 4 times with Quant Studio 3 Real-time PCR equipment (Thermofisher).

Point of comparison: B1, “Thermal stability Tm1” value 71.02. Against it:
- B2 — lower, 70.31
- B3 — higher, 72.9
- B4 — lower, 71.0
- B5 — lower, 69.94
- B6 — higher, 72.41

Same assay, conditions: antibody 1 mg/ml; ‘—’ refers to the same value as Tm1

Point of comparison: B4, “Thermal stability Tm2” value 76.97. Against it:
- B1 — lower, 76.31

Target: T1, KRS fragment (1-207 aa) (Homo sapiens, UniProt Q15046)
T1 construct: Using KRS fragment (1-207 aa) purified protein as an antigen
T1 sequence (Q15046 1-207): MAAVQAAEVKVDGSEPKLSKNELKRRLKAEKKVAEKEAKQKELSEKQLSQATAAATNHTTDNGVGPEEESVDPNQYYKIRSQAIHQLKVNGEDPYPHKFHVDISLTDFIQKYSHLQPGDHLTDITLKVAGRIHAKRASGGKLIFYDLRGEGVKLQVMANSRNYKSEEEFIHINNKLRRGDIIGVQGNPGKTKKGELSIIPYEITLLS
Assay: SPR with KRS fragment (1-207 aa) purified protein
Type: binding
Conditions: Biacore T200, 25° C., antibody immobilized, antigen 4.8 nM-1250 nM
Experimental: There was no significant difference in binding ability between KRS and the improved antibodies, N3-1, N3-3, N3-4, and N3-5. Thus, using the representative N3-1 IgG antibody among the improved antibodies selected in the Example 8-2, the affinity of the parent antibody, N3 antibody and KRS N-terminus was more specifically compared. Using KRS fragment (1-207 aa) purified protein as an antigen, the binding ability between N3 antibody and N3-1 antibody (IgG) was analyzed through Surface Plasmon Resonance (SPR). The SPR experiment was performed using a Biacore T200 (GE Healthcare) equipped with a Series S sensor chip CM5 (GE Healthcare) at 25° C. After the antibody was immobilized on the chip using an amine coupling kit (GE Healthcare), the antigen was diluted 4 times in PBS solution in the range of 4.8 nM-1250 nM and flowed for 60 seconds. Thereafter, PBS was flowed for 300 seconds. The obtained data was analyzed with Biacore T200 Evaluation software v2.0 (GE Healthcare).

Molecule B7 has a Kd of 31 nM.
